The values that follow are results of earlier work, collected in PMC7892437 (Frontiers in Pharmacology, 2021).

This data set concerns COVID-19. As to conditions: patients critically ill with COVID-19; ref Horby and Landrain, 2020; cited from earlier work.

On to `C[C@@H]1C[C@H]2[C@@H]3CCC4=CC(=O)C=C[C@]4(C)[C@@]3(F)[C@@H](O)C[C@]2(C)[C@@]1(O)C(=O)CO` [Dexamethasone], for which the cut in deaths result is on record as “one-third”.
